Some of the results follow.
T1: UNK ZnF1-3 (human, UniProt Q9C0B0 31-174)
T1 sequence: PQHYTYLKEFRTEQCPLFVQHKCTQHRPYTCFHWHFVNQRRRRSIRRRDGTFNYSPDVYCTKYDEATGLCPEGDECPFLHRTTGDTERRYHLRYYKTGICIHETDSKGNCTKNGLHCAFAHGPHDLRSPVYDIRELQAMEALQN

B1: 231487157_231487277_954_CDS_ENSG00000010072_ENST00000295050|human|control|control (ssRNA)
RNA: GGGAGUUCUACAGUCCGACGAUCUGCCUUUCCUUUGCCUUUUUUUGAGUAAUUCUCUGGUUCCUUGAUUUUUAUGUAAGUGCCUCCACAGGUUUUCUGGUGCUCAGCCCACCAAUAGUCAUGAGCAGAGGGUUCCCUGUUAGUCAACAGAGGAUUGAGCAUCA
B2: chr7:23547099:23547100:-_ENSG00000164548_ENST00000297071|hu_hu|FALSE|FALSE (ssRNA)
RNA: GGGAGUUCUACAGUCCGACGAUCUGGUCUGCCCAUGUAGAUGCCUGGUGUUGGUGUGUGCGCUCUCUUGGUUAUAGAAUAAUCCACCCGAAUUCUUCUACCAUCCAGCUCCAUUCCAUUUGCCCUUUCCAUAGCCUCCUUUGACAACAGAGGAUUGAGCAUCA
B3: chrX:12728449:12728450:+_ENSMUSG00000031010_ENSMUST00000089302|perfect_dup|motif|central (ssRNA)
RNA: GGGAGUUCUACAGUCCGACGAUCAUGUCCUAAAGCUUUUAAAGCUUCAUCUAAACUAUCCACCAAUGAAUUAAAAAAUUCGGAAGCAUCGUGUUGUUCACGCAGAUUAACAGGCUCACCCCAAAGCCUGAACUGUUUCCAAAACAACAGAGGAUUGAGCAUCA
B4: chr17:35971825:35971826:-_ENSMUSG00000001525_ENSMUST00000001566|mus_hu|FALSE|FALSE (ssRNA)
RNA: GGGAGUUCUACAGUCCGACGAUCUGAGCGCCUACUAUGUGCCAGGCACUGUUCUAGACCCCCCCCAGAAGAAAAAACAAAAAACAAGAUAGAGGCAGCAAACACAAAUUCUGAGGGAGAGGAAAGGGGCAGUUGAGUAAGACGCAACAGAGGAUUGAGCAUCA
B5: chr10:33190432:33190433:-_ENSG00000150093_ENST00000302278|hu_mus|hu_hu_hu_mus_True|98_98 (ssRNA)
RNA: GGGAGUUCUACAGUCCGACGAUCUACAUUUUCCAAACCUGCACAUGAAUAAAACCCUGGCCACAGAGCCCCAAAACUACCCUACUGUGACUAAGAUGCUGCUGCUGUGAGCUUGGUGUUGCAAAAUCCGCCUGAGUAGGAUUCCAACAGAGGAUUGAGCAUCA
B6: chr3:47164985:47164986:-_ENSG00000181555_ENST00000409792|hu_mus|FALSE|FALSE (ssRNA)
RNA: GGGAGUUCUACAGUCCGACGAUCUCUUUCGGACCGACAUCGGGAAGAUACAUACCGAGUAUCUCGUUCAAGUUUUGAGUAGCUACAAUAUCUAUCAUCUCUCUCUGUUUUCGAUCUUGAUGAUUUCCCCAAAUCCUCACUUUUCAACAGAGGAUUGAGCAUCA
B7: chr13:76104392:76104393:-_ENSG00000188243_ENST00000355801|hu_hu|FALSE|FALSE (ssRNA)
RNA: GGGAGUUCUACAGUCCGACGAUCAUACUUAAGAGAUCUGCAAGUGUCUGAGCUCACAGCCAUACCCAGUUUCCACUGAAAAUCUACAAGCUGGUUGGUGACAUCGGACUUAGCAUCCAGCGGCGGCUCGCUGGACGCCUCCAUCAACAGAGGAUUGAGCAUCA
B8: chr3:125216745:125216746:-_ENSG00000114520_ENST00000251775|hu_mus|motif|central (ssRNA)
RNA: GGGAGUUCUACAGUCCGACGAUCGAAGAUUUUGUCUCUACAAAGGACAGGAUGUGAAGCAACCCUCAAGAGGAAGUUUUCGGAGCCCACGCGUCGUCUCUCCACAAAGUCUGGGUCCAUGUUGUCAGCAGAGAGUUUAUGCCACAACAGAGGAUUGAGCAUCA
B9: chr17:45757422:45757423:+_ENSG00000108424_ENST00000290158|hu_mus|FALSE|FALSE (ssRNA)
RNA: GGGAGUUCUACAGUCCGACGAUCUACAUCCUUCCCGAAGGCUGUACACAAGUCCCCUAUCAGACCAGCAGCACAGGCUACCACUCCGUCCGUAUGAUCCUCAUCUCCAGCAAUGUGAUCAAUAAAAGACAAAAUAAAUUCUACCAACAGAGGAUUGAGCAUCA
B10: chr2:121837063:121837064:+_ENSMUSG00000033411_ENSMUST00000110578|mus_hu|FALSE|FALSE (ssRNA)
RNA: GGGAGUUCUACAGUCCGACGAUCAUUAGUCAUUCAUAUAUUCUUAUCUACCCAGUCUCUUGAUUUUUGAAAAGAUUUCACCUACAGUAGAAUAUUACAGAAACAAAAUAUAAAUGCAUGUCUUUCUAAAUGAAACUUACAUAGCAACAGAGGAUUGAGCAUCA
B11: 3573380_3573500_6314_CDS_ENSMUSG00000033799_ENSMUST00000096069|mouse|control|control (ssRNA)
RNA: GGGAGUUCUACAGUCCGACGAUCGUACUCUAGGUCUAAUGUAUGCUGAGUAAGGUCAUCUGUCACAUGCCAGGUACUAGUCCAGGAGCUGAGAAGGUUGCAGUUUGCACUCAAAUUCCGAUGCCUCUUCAGGCUAUGCAACCUCAACAGAGGAUUGAGCAUCA
B12: 104850710_104852920_1218_CDS_ENSG00000076685_ENST00000404739|human|control|control (ssRNA)
RNA: GGGAGUUCUACAGUCCGACGAUCGGAACUGAUGUCUGGACGCUCAUUGCUACUGCUGUCAAGAUGCUUGUAGAGUUCAGCCAAGAAAAUAUCCAAGCUCUGAAGUUCUUCGAAAAGUGAACUCUUGUCAGUCCAGACAUGUAGCAACAGAGGAUUGAGCAUCA
B13: chr7:139256351:139256352:-_ENSG00000064393_ENST00000406875|hu_hu|FALSE|FALSE (ssRNA)
RNA: GGGAGUUCUACAGUCCGACGAUCUCUUUCGAGAUCCACGGACUCUCUCCUAGCUCCUGCUGGCUUCCCUGGCAUCCUUCCGCUAGCAAACAGCCCAGGAAAGACAACGGGCAUUAACAUUUUAAAAAGAAAAAGAAAAAGAAACAACAGAGGAUUGAGCAUCA
B14: chr3:100432656:100432657:+_ENSG00000114354_ENST00000490574|hu_hu|FALSE|FALSE (ssRNA)
RNA: GGGAGUUCUACAGUCCGACGAUCUGUUACUUCAUCAUUACUCAGAAGUUUUCCUCUGAAAACUCGUUGCAUCAUUAGCACUAAUUCAUCAUAAGUAAUAUCUUCAUUAUGAAUAGGAAUUCGCCGAAUAUCCUCCCCAAGUUGCAACAGAGGAUUGAGCAUCA
B15: chr3:45748292:45748293:+_ENSG00000211456_ENST00000389061|hu_hu|FALSE|FALSE (ssRNA)
RNA: GGGAGUUCUACAGUCCGACGAUCUGCUUUCCAGACUACAUGACUGAAAAAUUCACCUACUUUUAUCUUUUUGGUAAUGACUAUAAGAUAAUUACCUGCCACCAGAUGGAUUGUGCCCAGUAUACCAAAUAUUGGUCUUGUGACCAACAGAGGAUUGAGCAUCA
B16: chr2:42509997:42509998:+_ENSG00000143924_ENST00000318522|hu_mus|hu_hu_hu_mus_True|1_88 (ssRNA)
RNA: GGGAGUUCUACAGUCCGACGAUCUCGCUGAGUCCUCUCCUCAUAAUUAAAUAGUACUACCACUGAGGCGAUAAAAUAAACUAUCUCCCCUGUGGGAAGCAGGUAUACAUUCGCUCUACAGUCCUUUCCUCGAUAACCAUAUGCCAACAGAGGAUUGAGCAUCA
B17: chr10:1038518:1038519:+_ENSG00000107937_ENST00000545048|hu_hu|hu_hu_hu_mus_False|1_108 (ssRNA)
RNA: GGGAGUUCUACAGUCCGACGAUCCAGUCUAUCAUGGUAAUUCUGUUGAGUAAAUUUGACUUUUCUCAUAUAAAAAUGUCGAAUCCGAUGAAUUUGAUAAUGUUUAUGAAUAACCGUUGGAGUCUUUCGUUGAGUCUUCGACAACAACAGAGGAUUGAGCAUCA
B18: 52102614_52102734_3300_3pUTR_ENSG00000128872_ENST00000249700|human|control|control (ssRNA)
RNA: GGGAGUUCUACAGUCCGACGAUCUUUCUUACAUAUUGCUAAUUUCUGUGGUGUAAAUAUUUCUACCAUGGCCAAUUUCAAGCCACUGUAGUAACAAGAAGGUAGUGAACAUGGAGUUGAGAGGAUACGUUCAGUAGCAUACUGCAACAGAGGAUUGAGCAUCA
B19: chr3:101264221:101264222:+_ENSMUSG00000042035_ENSMUST00000043983|mus_mus|motif|central (ssRNA)
RNA: GGGAGUUCUACAGUCCGACGAUCAGAUUGGCGAGUAGAUGCGGCACCUGGAGCUACGCACUAAGUUACCAAAACCAAAAACGGGGAACCUAGGAUGUUGGCAUCAUGACACCUGGGUGUGAUCAGCUAACCAGGGCUGCCGCCCAACAGAGGAUUGAGCAUCA
B20: chr7:141441981:141441982:+_ENSG00000106028_ENST00000265304|hu_mus|hu_hu_hu_mus_False|1_28 (ssRNA)
RNA: GGGAGUUCUACAGUCCGACGAUCCUCAUGUCUUACAAACUGACGAAAUACCUGUAACACAGGUCUUCGAAACAUGGCUUCUGUUUUUCUUACAACCUAAUCUUUAGUUAGGCUUUUAAGGAAAGAAAGAAAAGAGAAGCCCAGCAACAGAGGAUUGAGCAUCA
B21: 131209633_131209753_140_3pUTR_ENSMUSG00000025809_ENSMUST00000090006|mouse|control|control (ssRNA)
RNA: GGGAGUUCUACAGUCCGACGAUCUCGGGCCGGCGUCGGCGGGCCUCGGCUUCUCGGUUGGUCUCGGGUGGCGUCGGCGGGCCUCGGCCGCUCCGCGGGUCUGGCGGCUCUUCAGCGAGUGGGCGGAGACUCGGCCCGCCUGUCCAACAGAGGAUUGAGCAUCA
B22: chr1:220315150:220315151:+_ENSG00000067704_ENST00000302637|hu_hu|motif|central (ssRNA)
RNA: GGGAGUUCUACAGUCCGACGAUCAGCCAGGUGAGGAAGAAUGGGAGCAAAAGAACGAACUAUUACAUCCAAAAUUUCAACGGAUGCAGUCUGACAAGAGCGUCGUUUGGGGUCAUUUUCCUUUUCACAAUAGAGCCUAUCUUUCAACAGAGGAUUGAGCAUCA

target: T1, UNK ZnF1-3; assay: nsRBNS (natural sequence RNA bind-n-seq); RBNS binding buffer (assumed for nsRBNS): 25 mM Tris pH 7.5, 150 mM KCl, 3 mM MgCl2, 0.01% Triton X-100, 500 ug/ml BSA, 20 U/ml SUPERase-In, 4 C; UNK is unkempt and MSI1 is Musashi-1; names of the RNAs are library labels; protein concentration not given here; high values mean tight binding

| Binder | binding signal [enrichment R] |
| --- | --- |
| B1 | 0.512 |
| B2 | 0.625 |
| B3 | 1.65 |
| B4 | 2.22 |
| B5 | 1.2 |
| B6 | 0.663 |
| B7 | 0.651 |
| B8 | 1.49 |
| B9 | 1.56 |
| B10 | 0.826 |
| B11 | 0.764 |
| B12 | 0.921 |
| B13 | 1.86 |
| B14 | 0.418 |
| B15 | 2.32 |
| B16 | 1.48 |
| B17 | 0.553 |
| B18 | 0.66 |
| B19 | 1.52 |
| B20 | 0.455 |
| B21 | 0.347 |
| B22 | 2.51 |

From article PMC12136788
